In all, about 33,000 sequences were measured (“E-score (-0.5 to 0.5)”: median about -0.017, highest 2% from about 0.3 on). The list shows a part of the results.
Each sequence was assayed against T1, Sut1 (UniProt P53032) (assay: PBM E-score (8-mer binding enrichment) (E-score (-0.5 to 0.5)); higher = stronger / more preferred TF binding; most listed sequences are background and not binding sites). Details: protein concentration: 200 nM; construct: GST-full length.
T1 sequence: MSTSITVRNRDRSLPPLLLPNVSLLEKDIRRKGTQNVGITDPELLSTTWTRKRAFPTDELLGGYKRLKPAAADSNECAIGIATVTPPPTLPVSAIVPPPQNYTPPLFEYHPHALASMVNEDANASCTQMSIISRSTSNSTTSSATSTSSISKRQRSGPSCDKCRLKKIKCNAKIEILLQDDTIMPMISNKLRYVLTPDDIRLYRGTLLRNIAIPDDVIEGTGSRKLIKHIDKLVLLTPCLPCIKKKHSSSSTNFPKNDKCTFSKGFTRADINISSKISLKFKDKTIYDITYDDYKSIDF
How it was run: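 Yeast transcription factors carrying a GST tag, as full-length proteins or DNA-binding domains, were produced by PURExpress in vitro transcription/translation. About 100-200 nM protein was applied to universal all-10-mer Agilent arrays, double-stranded by primer extension on fresh or once-stripped slides. Bound protein was detected with fluorescent anti-GST, and scans were normalised with masliner. The Universal PBM Analysis Suite gave each ungapped eight-base word, pooled with its reverse complement, an E-score, a modified Wilcoxon-Mann-Whitney statistic.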

| Sequence | PBM E-score |
| --- | --- |
| ATTTATCG | 0.191 |
| GAGTTTGA | 0.148 |
| ACCGTTAA | 0.0212 |
| CATATACG | 0.116 |
| ACCTGGCC | -0.119 |
| ACGGAAAC | 0.0512 |
| CGTTCATA | 0.137 |
| CAACCTGA | -0.121 |
| CATGCCGC | 0.0558 |
| CACGATAA | 0.25 |
| ACATCTTC | 0.0267 |
| AAGAGGCT | -0.196 |
| GGTCGGCA | -0.187 |
| TCCCTAGA | -0.00999 |
| GATCGCGC | -0.224 |
| TAGTGGCA | -0.177 |
| AAAGGCAG | 0.047 |
| TCAACGGA | 0.246 |
| CAACGATC | 0.0206 |
| ATAGAACG | 0.0867 |
| TACGCAAA | -0.125 |
| ATCATCGA | 0.14 |
| AGTCGAGA | 0.113 |
| AATTAGAC | 0.151 |
| ATCCGGCA | -0.166 |

| Sequence | PBM E-score |
| --- | --- |
| ATTGGTCA | -0.216 |
| AGGAGCGA | -0.00713 |
| ATGACTAG | 0.0157 |
| AGGGACCG | -0.139 |
| AGATATCG | 0.0331 |
| AGTAGTAA | 0.164 |
| CGACGGGA | 0.0318 |
| CTCTTGAA | -0.025 |
| CACTGTGA | -0.119 |
| AGCTGATC | -0.0638 |
| GCGATTCA | -0.137 |
| CTCTCGAC | -0.152 |
| GCCCTCTA | -0.223 |
| AGCATAAT | 0.206 |
| ACGCTCAG | -0.155 |
| GCAGGGCA | -0.0948 |
| CAGTTACA | 0.0716 |
| AAAACATG | 0.064 |
| CACATCCG | 0.0923 |
| GAATCCCC | -0.175 |
| GCAAGAGC | -0.144 |
| CGATGACG | -0.18 |
| ACTCAGTC | -0.0209 |
| GCCAGTCA | -0.182 |
| CGGTACAG | -0.0311 |

| Sequence | PBM E-score |
| --- | --- |
| CCGATCTC | 0.0158 |
| AGTGAATC | 0.0271 |
| CGGTTAAG | 0.117 |
| AAGGACCT | -0.0841 |
| AGGTTCAC | -0.154 |
| AGCGAGCT | 0.0152 |
| CGCGTGAG | 0.0649 |
| AAACTACT | 0.199 |
| GACCGGTA | -0.182 |
| GCTAGTAA | 0.0423 |
| ACTCCAGG | 0.00411 |
| GAGTTCGC | 0.0136 |
| AGTGTATA | -0.0309 |
| CAATCTAA | 0.0494 |
| AACGGAGA | 0.359 |
| ATATCGCG | 0.0948 |
| CGTTGATC | -0.0712 |
| GAGGAGCC | -0.0488 |
| CCTAGCCC | -0.128 |
| AAAGATGT | 0.047 |
| CACAGGCA | -0.147 |
| ACTGTGGC | -0.348 |
| ACGCGTGA | 0.00536 |
| GGCAGTCA | -0.04 |
| CAAGGCTG | -0.151 |

| Sequence | PBM E-score |
| --- | --- |
| CATTCACC | 0.0184 |
| CGTGCGTC | 0.0632 |
| CCTAAAAG | -0.243 |
| CAGGAAAG | -0.137 |
| GGTAACTA | 0.122 |
| CGGCCGGC | -0.11 |
| AACGTACA | 0.0151 |
| CTCCACTC | -0.144 |
| CGCCTTAG | -0.176 |
| CACAGGGA | -0.237 |
| CGTTCGGA | 0.385 |
| CAGAAACC | 0.00134 |
| AACGCCCA | -0.0199 |
| AGCTGTCA | 0.00752 |
| AACGGCTC | 0.18 |
| CAACGTGC | -0.132 |
| AGCACCAT | -0.315 |
| CTCCGTCC | 0.307 |
| ATATAGCG | -0.00599 |
| AGGTAAAC | 0.209 |
| AGCTCTAT | 0.0252 |
| CATATCCG | 0.102 |
| GAATCCAC | 0.0244 |
| CGTGCAAG | 0.0139 |
| AGCACCCG | -0.169 |

| Sequence | PBM E-score |
| --- | --- |
| GCGGCTCC | -0.0849 |
| CGCTTAGC | -0.004 |
| ACGAATAT | 0.195 |
| CCGTGGCA | 0.0302 |
| CTTAATTC | 0.161 |
| GGATCACC | -0.0362 |
| GACAGCGA | 0.0726 |
| GGAATCCC | -0.0983 |
| ACCTATTG | 0.0851 |
| GTACGACA | -0.0144 |
| ATCACCCA | -0.012 |
| GGTTATTA | 0.141 |
| ACGCATTC | 0.0238 |
| CACAGATA | -0.182 |
| CAGTCTGC | -0.194 |
| GGGGCTTA | -0.287 |
| AGGGACAC | 0.0534 |
| ACTTCACG | -0.152 |
| ACTTTAGA | 0.178 |
| AGCGACGC | -0.123 |
| AAACACCG | 0.201 |
| ACGATAGC | -0.122 |
| GTGCGGAA | 0.0942 |
| GATTCAAC | 0.132 |
| ATGACCAC | -0.135 |

| Sequence | PBM E-score |
| --- | --- |
| GGACCATA | -0.0784 |
| AATTCCGC | 0.192 |
| AAAAGCAT | 0.149 |
| ACTACTGG | -0.146 |
| ATCGAGGG | -0.1 |
| CGCAACCC | 0.023 |
| CTGTCAGC | -0.0355 |
| GCCAGTAC | -0.107 |
| CTTAAACA | 0.171 |
| CTAGGGGC | -0.309 |
| CTAGACTA | -0.00238 |
| GACTGGAC | -0.212 |
| GAGGTAGA | -0.165 |
| ATGCCGCG | -0.00984 |
| CTTTAGTC | 0.11 |
| CGAATGCC | -0.147 |
| CCTCATCG | -0.156 |
| AATGCACA | 0.108 |
| CATCGGAA | 0.269 |
| AGCTAATA | -0.0778 |
| ATAACCGC | -0.00795 |
| ATCAGGCG | -0.068 |
| AACCCTTG | -0.175 |
| CGTTTAGC | 0.0573 |
| ATTAGCGG | -0.0289 |

| Sequence | PBM E-score |
| --- | --- |
| AAATTGAG | 0.174 |
| GTGGAAAC | 0.132 |
| ACAGGTCT | -0.109 |
| CATAAACA | 0.23 |
| CTAGGTTA | 0.165 |
| GAGTACAC | -0.149 |
| AAGTGGTG | -0.0118 |
| CAGCCAAA | 0.142 |
| CGCTTTCC | -0.016 |
| AACCTGCG | -0.0921 |
| TAACGGCA | 0.00495 |
| ACACTCAC | 0.111 |
| ACTCATGC | -0.0834 |
| ACTCTTAA | 0.005 |
| CCGAGTCG | -0.0127 |
| CCCACTAC | -0.119 |
| ATAGACTA | 0.0154 |
| ATCCAAGC | -0.0483 |
| AAGCAAGT | 0.109 |
| CATCTACA | 0.174 |
| CCACGTGC | -0.185 |
| GACTGGCC | -0.114 |
